# pIC50: −log10 of the molar value.
# Tested on: A375 cells
# Assay: Phospho-ERK ELISA assay
# Assay type: cell-based
# Details: Homo sapiens, A-375, 3 hours with inhibitor, anti-p44/42MAPK antibody ELISA, normalized for protein content
# Description: Inhibition of Raf kinase activity in whole cell systems can be assessed by determining the decrease in phosphorylation of Raf kinase substrates. Any known Raf kinase substrate can be used to measure inhibition of Raf kinase activity in a whole cell system.
# In a specific example, A375 cells were seeded in a 96-well cell culture plate (12×10^3 cells/100 μL/well) and incubated overnight at 37° C. Medium was removed, and cells were incubated with Raf kinase inhibitors for 3 hours at 37° C. Medium was removed, and cells were fixed with 4% paraformaldehyde for 15 minutes at room temperature.
# Methanol was added for 15 min. Cells were removed and blocked with 10% sheep serum and 1% BSA in PBS overnight at 4° C. Cells were incubated with anti-p44/42MAPK antibody (1:100, Cell Signaling Technologies, #9101L) (20 μL/well) for one hour at room temperature. After washing with PBS three times, cells were stained with anti-rabbit horseradish peroxidase-linked antibody from donkey (1:100, Amersham Bioscience #NA934V) for 1 hour at room temperature. Cells were washed three times with 0.5% Tween-20 in PBS and twice with PBS. 3,3′,5,5′-Tetramethylbenzidine (TMB) liquid substrate system (Sigma, #T8665) (50 μL/well) was added, and cells were incubated for 30-45 minutes at room temperature. Optical density was read at 650 nm. Cells were then washed 3-5 times with PBS to remove color solution. Results were normalized for the protein content in each well using a BCA protein assay kit (Pierce).
row,SMILES,pIC50
1,"CN(C)Cc1cnc(-c2cc(Oc3cccc(CCC(=O)Nc4ccc(Cl)c(C(F)(F)F)c4)c3)ccn2)[nH]1 [Compound A-73, N-[4-chloro-3-(trifluoromethyl)phenyl]-3-{3-[(2-{5-[(dimethylamino)methyl]-1H-imidazol-2-yl}pyridin-4-yl)oxy]phenyl}propanamide]",5.00 to 6.00
2,"O=C(CCc1cccc(Oc2ccnc(C3=NCCN3)c2)c1)Nc1cc(C(F)(F)F)ccc1Br [Compound A-176, N-[2-bromo-5-(trifluoromethyl)phenyl]-3-(3-{[2-(4,5-dihydro-1H-imidazol-2-yl)pyridin-4-yl]oxy}phenyl)propanamide]",5.00 to 6.00
3,"CC1(C)OC(=O)c2ccc(NC(=O)CCc3cccc(Oc4ccnc(C5=NCCN5)c4)c3)cc21 [Compound A-169, 3-(3-{[2-(4,5-dihydro-1H-imidazol-2-yl)pyridin-4-yl]oxy}phenyl)-N-(3,3-dimethyl-1-oxo-1,3-dihydro-2-benzofuran-5-yl)propanamide]",5.00 to 6.00
4,O=C(CCc1ccc(Oc2ccnc(C3=NCCN3)c2)cc1)Nc1ccc(Cl)c(C(F)(F)F)c1 [Compound A-27],5.00 to 6.00
5,"O=C(Nc1ccc(Cl)c(C(F)(F)F)c1)/C(F)=C/c1cccc(Oc2ccnc(C3=NCCN3)c2)c1 [Compound B-11, (2Z)-N-[4-chloro-3-(trifluoromethyl)phenyl]-3-(3-{[2-(4,5-dihydro-1H-imidazol-2-yl)pyridin-4-yl]oxy}phenyl)-2-fluoroacrylamide]",≥ 6.00
6,"CC(C)(C)c1cccc(NC(=O)CCc2cccc(Oc3ccnc(C4=NCCN4)c3)c2)c1 [Compound A-59, N-(3-tert-butylphenyl)-3-(3-{[2-(4,5-dihydro-1H-imidazol-2-yl)pyridin-4-yl]oxy}phenyl)propanamide]",≥ 6.00
7,"CC(C)(C)c1cc(NC(=O)CCc2cccc(Oc3ccnc(C4=NCCN4)c3)c2)cc(C(C)(C)C)c1 [Compound A-230, N-(3,5-di-tert-butylphenyl)-3-(3-{[2-(4,5-dihydro-1H-imidazol-2-yl)pyridin-4-yl]oxy}phenyl)propanamide]",5.00 to 6.00
8,"O=C(CCc1ccc(Oc2ccnc(C3=NC(CO)CN3)c2)cc1)Nc1ccc(Cl)c(C(F)(F)F)c1 (stereo not drawn) [Compound A-243, N-[4-chloro-3-(trifluoromethyl)phenyl]-3-[4-({2-[4-(hydroxymethyl)-4,5-dihydro-1H-imidazol-2-yl]pyridin-4-yl}oxy)phenyl]propanamide]",5.00 to 6.00
9,"CN(C)CCNC(=O)c1cc(Oc2cccc(CCC(=O)Nc3ccc(Cl)c(C(F)(F)F)c3)c2)ccn1 [Compound A-78, 4-[3-(3-{[4-chloro-3-(trifluoromethyl)phenyl]amino}-3-oxopropyl)phenoxy]-N-[2-(dimethylamino)ethyl]pyridine-2-carboxamide]",4.60 to 5.00
10,"CC(C)c1cccc(NC(=O)/C=C/c2cccc(Oc3ccnc(C4=NCCN4)c3)c2)c1 [Compound B-2, (E)-3-(3-(2-(4,5-dihydro-1H-imidazol-2-yl)pyridin-4-yloxy)phenyl)-N-(3-isopropylphenyl)acrylamide]",≥ 6.00
11,"COC(=O)C1CNC(c2cc(Oc3cccc(CCC(=O)Nc4ccc(Cl)c(C(F)(F)F)c4)c3)ccn2)=N1 (stereo not drawn) [Compound A-180, methyl 2-{4-[3-(3-{[4-chloro-3-(trifluoromethyl)phenyl]amino}-3-oxopropyl)phenoxy]pyridin-2-yl}-4,5-dihydro-1H-imidazole-4-carboxylate]",4.60 to 5.00
12,"O=C(CCc1cccc(Oc2ccnc(C3=NCCN3)c2)c1)Nc1ccc(I)c(C(F)(F)F)c1 [Compound A-239, 3-(3-{[2-(4,5-dihydro-1H-imidazol-2-yl)pyridin-4-yl]oxy}phenyl)-N-[4-iodo-3-(trifluoromethyl)phenyl]propanamide]",5.00 to 6.00
13,"O=C(CCc1cccc(Oc2ccnc(C3=NCCN3)c2)c1)Nc1cc(OCCN2CCOCC2)cc(C(F)(F)F)c1 [Compound A-231, 3-(3-{[2-(4,5-dihydro-1H-imidazol-2-yl)pyridin-4-yl]oxy}phenyl)-N-[3-(2-morpholin-4-ylethoxy)-5-(trifluoromethyl)phenyl]propanamide]",5.00 to 6.00
14,"CNC(=O)c1cc(Oc2cccc(CCC(=O)Nc3cc(N)cc(C(F)(F)F)c3)c2)ccn1 [Compound A-225, 4-[3-(3-{[3-an-no-5-(trifluoromethyl)phenyl]amino}-3-oxopropyl)phenoxy]-N-methylpyridine-2-carboxamide]",4.60 to 5.00
15,"CC(C)(C)c1ccc(O)c(NC(=O)CCc2cccc(Oc3ccnc(C(N)=O)c3)c2)c1 [Compound A-90, 4-(3-{3-[(5-tert-butyl-2-hydroxyphenyl)amino]-3-oxopropyl}phenoxy)pyridine-2-carboxamide]",5.00 to 6.00
16,"CC/C(=C\c1cccc(Oc2ccnc(C3=NCCN3)c2)c1)C(=O)Nc1ccc(Cl)c(C(F)(F)F)c1 [Compound B-8, (E)-2-(3-(2-(4,5-Dihydro-1H-imidazol-2-yl)pyridin-4-yloxy)benzylidene)-N-(4-chloro-3-(trifluoromethyl)phenyl)butanamide]",≥ 6.00
17,"N#Cc1ccc(NC(=O)CCc2cccc(Oc3ccnc(C4=NCCN4)c3)c2)cc1C(F)(F)F [Compound A-91, N-[4-cyano-3-(trifluoromethyl)phenyl]-3-(3-{[2-(4,5-dihydro-1H-imidazol-2-yl)pyridin-4-yl]oxy}phenyl)propanamide]",5.00 to 6.00
18,"N=C(N)c1cc(Oc2cccc(CCC(=O)Nc3ccc(Cl)c(C(F)(F)F)c3)c2)ccn1 [Compound A-228, 3-[3-({2-[amino(imino)methyl]pyridin-4-yl}oxy)phenyl]-N-[4-chloro-3-(trifluoromethyl)phenyl]propanamide]",5.00 to 6.00
19,"CCOC(=O)c1cnc(-c2cc(Oc3cccc(CCC(=O)Nc4ccc(Cl)c(C(F)(F)F)c4)c3)ccn2)[nH]1 [Compound A-110, ethyl 2-{4-[3-(3-{[4-chloro-3-(trifluoromethyl)-phenyl]amino}-3-oxopropyl)phenoxy]pyridin-2-yl}-1H-imidazole-5-carboxylate]",5.00 to 6.00
20,"NC(=O)c1nnc(-c2cc(Oc3cccc(CCC(=O)Nc4ccc(Cl)c(C(F)(F)F)c4)c3)ccn2)o1 [Compound A-102, 5-{4-[3-(3-{[4-chloro-3-(trifluoromethyl)phenyl]amino}-3-oxopropyl)phenoxy]pyridin-2-yl}-1,3,4-oxadiazole-2-carboxamide]",4.60 to 5.00
21,"CNC(=O)c1cc(Oc2cccc(CCC(=O)Nc3cc(C(C)(C)C)on3)c2)ccn1 [Compound A-149, 4-(3-{3-[(5-tert-butylisoxazol-3-yl)amino]-3-oxopropyl}phenoxy)-N-methylpyridine-2-carboxamide]",5.00 to 6.00
22,"C#Cc1ccc(NC(=O)CCc2cccc(Oc3ccnc(C4=NCCN4)c3)c2)cc1C(F)(F)F [Compound A-144, 3-(3-{[2-(4,5-dihydro-1H-imidazol-2-yl)pyridin-4-yl]oxy}phenyl)-N-[4-ethynyl-3-(trifluoromethyl)phenyl]propanamide]",≥ 6.00
23,"O=C(CCc1cccc(Oc2ccnc(C3=NCCN3)c2)c1)Nc1ccc(CCCO)c(C(F)(F)F)c1 [Compound A-145, 3-(3-{[2-(4,5-dihydro-1H-imidazol-2-yl)pyridin-4-yl]oxy}phenyl)-N-[4-(3-hydroxypropyl)-3-(trifluoromethyl)phenyl]propanamide]",5.00 to 6.00
24,"NCCc1cc(NC(=O)CCc2cccc(Oc3ccnc(C4=NCCN4)c3)c2)cc(C(F)(F)F)c1 [Compound A-148, N-[3-(2-aminoethyl)-5-(trifluoromethyl)phenyl]-3-(3-{[2-(4,5-dihydro-1H-imidazol-2-yl)pyridin-4-yl]oxy}phenyl)propanamide]",5.00 to 6.00
25,"CN1CCN(C(=O)c2c[nH]c(-c3cc(Oc4cccc(CCC(=O)Nc5ccc(Cl)c(C(F)(F)F)c5)c4)ccn3)n2)CC1 [Compound A-184, N-[4-chloro-3-(trifluoromethyl)phenyl]-3-{3-[(2-{4-[(4-methylpiperazin-1-yl)carbonyl]-1H-imidazol-2-yl}pyridin-4-yl)oxy]phenyl}propanamide]",≥ 6.00
26,"O=C(CCc1cccc(Oc2ccnc(-c3ncc(C(=O)O)[nH]3)c2)c1)Nc1ccc(Cl)c(C(F)(F)F)c1 [Compound A-113, 2-{4-[3-(3-{[4-chloro-3-(trifluoromethyl)phenyl]amino}-3-oxopropyl)phenoxy]pyridin-2-yl}-1H-imidazole-4-carboxylic acid]",5.00 to 6.00
27,"O=C(CCc1cccc(Oc2ccnc(C3=NCCN3)c2)c1)Nc1ccc(Br)c(C(F)(F)F)c1 [Compound A-257, N-[4-bromo-3-(trifluoromethyl)phenyl]-3-(3-{[2-(4,5-dihydro-1H-imidazol-2-yl)pyridin-4-yl]oxy}phenyl)propanamide]",5.00 to 6.00
28,CNC(=O)c1cc(Oc2cccc(CCC(=O)Nc3cc(CCN)cc(C(F)(F)F)c3)c2)ccn1 [Compound A-201],4.60 to 5.00
29,"C/C(=C\c1cccc(Oc2ccnc(C3=NCCN3)c2)c1)C(=O)Nc1cccc(C(C)(C)C)c1 [Compound B-139, (2E)-N-(3-tert-butylphenyl)-3-(3-{[2-(4,5-dihydro-1H-imidazol-2-yl)pyridin-4-yl]oxy}phenyl)-2-methylacrylamide]",≥ 6.00
30,"CC(C)(C)c1cccc(NC(=O)C(O)Cc2cccc(Oc3ccnc(C4=NCCN4)c3)c2)c1 (stereo not drawn) [Compound A-166, N-(3-tert-butylphenyl)-3-(3-{[2-(4,5-dihydro-1H-imidazol-2-yl)pyridin-4-yl]oxy}phenyl)-2-hydroxypropanamide]",5.00 to 6.00

# — patent publication US7652041B2, “Cinnamide and hydrocinnamide derivatives with kinase inhibitory activity” (Millennium Pharmaceuticals, Inc., priority 2005, dated 2010)
